Test results from US11285169B2, “Methods for modulating chemotherapeutic cytotoxicity” (The United States of America, as represented by the …, priority 2013, dated 2022).
Counter-ions that a name gives are not always drawn. Like-named read-outs stand apart in the source and are kept apart here. Residues, ends and D or L forms follow the SMILES beside them.

What was measured:
[1] = system: CD47 deficient (CD47 KO) Jurkat T cells
[2] = system: WT Jurkat cells
[3] = CD47 KO Jurkat T cells, 48 hours, 10^-9 to 10^-4 M, CellTiter-Glo
[4] = difference CD47 KO minus WT Jurkat cells, 48 hours
[5] = WT Jurkat cells, 48 hours, 10^-9 to 10^-4 M, CellTiter-Glo

Molecule | Maximal Response CD47 KO (RLU) [1, 3] | Δ Maximal Response CD47KO-WT [1, 4] | Maximal Response WT (RLU) [2, 5] | further results
CCNC(=O)Nc1ccc(Oc2ncnc(N)c2/C=N/OC)cc1Cl [JNJ-38158471] | 64.339 RLU | 35.985 | 28.354 RLU | 
C/C(=C\C(=O)Nc1ccccc1C(=O)O)c1ccc2ccccc2c1 [BIBR 1532] | 45.071 RLU | 21.966 | 23.105 RLU | 
CC[C@H]1CN2CCc3cc(OC)c(OC)cc3[C@@H]2C[C@@H]1C[C@H]1NCCc2cc(OC)c(OC)cc21 [Emetine] | 33.945 RLU |  | 5.168 RLU | 
O=C(NC1CCNCC1)c1[nH]ncc1NC(=O)c1c(Cl)cccc1Cl [AT-7519] | 27.655 RLU |  | 1.678 RLU | 
O=C1NCCc2[nH]c(-c3ccncc3)cc21 [PHA-767491A] | 50.652 RLU | 46.835 | 3.817 RLU | 
O=C(NCc1ccccc1)[C@H](Cc1ccccc1)NC(=O)[C@H]1O[C@@H]1C(=O)NCCc1ccc(O)cc1 [CAA0225] | 41.833 RLU |  | 13.449 RLU | 
C/C(=C\c1csc(C)n1)[C@@H]1C[C@@H]2O[C@@H]2CCC[C@H](C)[C@H](O)[C@@H](C)C(=O)C(C)(C)[C@@H](O)CC(=O)O1 [Epothilone A] |  |  |  | Maximal Response CD47 KO (RLU) [1]: 52.727 RLU; Δ Maximal Response CD47KO-WT [1]: 26.334; Maximal Response WT (RLU) [2]: 26.393 RLU
CC(C)Cn1cnc2c(N)nc3ccccc3c21 [Imiquimod] | 72.849 RLU |  | 50.894 RLU | 
C[C@]1(CO)CN(c2cc(C(=O)Nc3ccc4c(c3)-c3c(c(C(N)=O)nn3-c3ccc(F)cc3)CC4)c(Cl)cn2)C[C@@]1(C)CO [PF-184] | 51.177 RLU | 35.532 | 15.645 RLU | 
C=CCn1c(=O)c2cnc(Nc3ccc(N4CCN(C)CC4)cc3)nc2n1-c1cccc(C(C)(C)O)n1 [MK-1775] | 36.376 RLU | 21.448 | 14.928 RLU | 
O=c1[nH]c2ccc(Cl)cc2c(N[C@@H]2CN3CCC2CC3)c1-c1nc2ccccc2[nH]1 [CHIR-124] |  |  |  | Δ LogAC50 CD47KO-WT [1]: 1.1; AC50 ([1]; read-out: AC50 (μM) CD47 KO, CD47 KO Jurkat T cells, cell viability, 48 hours): 1.48 µM; AC50 ([2]; read-out: AC50 (μM) WT): 0.118 µM
Cc1cc(SCc2sc(-c3ccc(C(F)(F)F)cc3)nc2C)ccc1OCC(=O)O [GW-501516] | 97.955 RLU | 22.007 | 75.948 RLU | 
Cc1ccccc1C(C(=O)NC1CCCCC1)N(C(=O)Cn1ccnc1C)c1cccc(F)c1 (centres unmarked) [AGI-5198] | 45.976 RLU |  | 24.153 RLU | 
COc1ccc(C2=N[C@@H](c3ccc(Cl)cc3)[C@@H](c3ccc(Cl)cc3)N2C(=O)N2CCNC(=O)C2)c(OC(C)C)c1 [Nutlin-3] |  |  |  | Maximal Response CD47 KO (RLU) [1]: 49.966 RLU; Δ Maximal Response CD47KO-WT [1]: 42.145; Maximal Response WT (RLU) [2]: 7.821 RLU
CCOC(=O)Nc1ccc(NCc2ccc(F)cc2)nc1N [Flupirtine maleate] | 69.164 RLU |  | 44.09 RLU | 
CS(=O)(=O)c1ccc(-c2cnc(N)c(C(=O)Nc3ccccc3)n2)cc1 [VE-821] |  |  |  | Maximal Response CD47 KO (RLU) [1]: 64.063 RLU; Maximal Response WT (RLU) [2]: 17.653 RLU
Bioymifi |  |  |  | Maximal Response CD47 KO (RLU) [1]: 48.515 RLU; Δ Maximal Response CD47KO-WT [1]: 38.027; Maximal Response WT (RLU) [2]: 10.488 RLU

Molecule | Maximal Response CD47 KO (RLU) [1, 3] | Δ Maximal Response CD47KO-WT [1, 4] | Maximal Response WT (RLU) [2, 5] | further results
CCOC(=O)C1=C(C)NC(=S)NC1c1cccc(O)c1 (centres unmarked) [Monastrol] | 69.287 RLU |  | 32.433 RLU | 
CO[C@H]1C[C@@H]2CC[C@@H](C)[C@@](O)(O2)C(=O)C(=O)N2CCCC[C@H]2C(=O)O[C@H]([C@H](C)C[C@@H]2CC[C@@H](OP(C)(C)=O)[C@H](OC)C2)CC(=O)[C@H](C)/C=C(\C)[C@@H](O)[C@@H](OC)C(=O)[C@H](C)C[C@H](C)/C=C/C=C/C=C/1C [Ridaforolimus] | 33.391 RLU |  | 8.791 RLU | 
C/C=C(\C)C(=O)N[C@@H](c1ccccc1)[C@@H](O)C(=O)O[C@H]1C[C@@]2(O)[C@@H](OC(=O)c3ccccc3)[C@@H]3[C@]4(OC(C)=O)CO[C@@H]4C[C@H](O)[C@@]3(C)C(=O)[C@H](OC(C)=O)C(=C1C)C2(C)C [Cephalomannine] |  |  |  | Maximal Response CD47 KO (RLU) [1]: 45.625 RLU; Maximal Response WT (RLU) [2]: 22.158 RLU
C=C1c2cccc(O)c2C(=O)C2=C(O)[C@]3(O)C(=O)C(C(N)=O)=C(O)[C@@H](N(C)C)[C@@H]3[C@@H](O)[C@H]12 [Methacycline hydrochloride] | 46.269 RLU |  | 18.154 RLU | 
O=C(O)c1ccc(O)c2ncc(N3CCOCC3)cc12 [NCGC00241036-01] | 73.954 RLU | 27.814 | 46.14 RLU | 
Cc1ccc(C(C)(O)c2nc3ccccc3s2)c(C)c1 (centres unmarked) [AC-265347] | 108.022 RLU | 31.483 | 76.539 RLU | 
CN(c1nccc(=O)[nH]1)C1CCN(c2nc3ccccc3n2Cc2ccc(F)cc2)CC1 [Mizolastine] | 89.324 RLU |  | 60.168 RLU | 
CC(C)(C)OC(=O)N[C@H]1CCCCC/C=C\[C@@H]2C[C@@]2(C(=O)NS(=O)(=O)C2CC2)NC(=O)[C@@H]2C[C@@H](OC(=O)N3Cc4cccc(F)c4C3)CN2C1=O [Danoprevir] | 101.689 RLU |  | 75.521 RLU | 
CN(C/C=C/C#CC(C)(C)C)Cc1cccc2ccccc12 [Terbinafine hydrochloride] | 58.754 RLU |  | 36.243 RLU | 
COC(=O)[C@H](Cc1ccccc1)NC(=O)[C@@H](N)CC(=O)O [Aspartame] (H-Asp-Phe-OMe) | 127.356 RLU |  | 103.971 RLU | 
NS(=O)(=O)c1cc2c(cc1Cl)NCNS2(=O)=O [Hydrochlorothiazide] | 42.166 RLU |  | 15.923 RLU | 
Cc1ccccc1-n1c(Cn2ncc3c(N)ncnc32)nc2cccc(C)c2c1=O [PIK-293] | 50.9 RLU | 35.455 | 15.445 RLU | 
CCOC(=O)C1=C(O)C(=O)N(Cc2ccccc2)C1 [EBPC] | 122.465 RLU | 22.331 | 100.134 RLU | 
NCCCCNCCCN [Spermidine] | 82.208 RLU |  | 20.847 RLU | 
O=C(c1cc(Cc2n[nH]c(=O)c3ccccc23)ccc1F)N1CCN(C(=O)C2CC2)CC1 [Olaparib] | 90.538 RLU |  | 63.542 RLU | 
COc1ccc2c(c1)c(CC(=O)OCC(=O)O)c(C)n2C(=O)c1ccc(Cl)cc1 [Acemetacin] | 130.505 RLU |  | 103.666 RLU | 
